The other results are listed elsewhere or left out. Sequences were assembled here from the parent chain. Values near 0.05 are background.
B1: TEV protease; numbered along this chain (parent)
chain: MGESLFKGPRDYNPISSSICHLTNESDGHTTSLYGIGFGPFIITNKHLFRRNNGTLVVQSLHGVFKVKDTTTLQQHLVDGRDMIIIRMPKDFPPFPQKLKFREPQREERICLVTTNFQTKSMSSMVSDTSCTFPSGDGIFWKHWIQTKDGQCGSPLVSTRDGFIVGIHSASNFTNTNNYFTSVPKNFMELLTNQEAQQWVSGWRLNADSVLWGGHKVFMVKPEEPFQPVKEATQL

Variants of: B1
Assay: raw area under fraction-flipped curve 0-4 h after induction (AUC4h, not background-subtracted), DNA-recorder readout of cleavage of the substrate (dimensionless); higher = more cleavage of the substrate by the protease variant
Conditions: temperature: 34 °C; time window: 0-4 h after rhamnose induction
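Also: Bxb1 expression induced with 0.2% (w/v) L-rhamnose at OD600 near 0.5, cultures sampled hourly, flipped fraction per protease–substrate barcode pair counted by paired-end Illumina sequencing.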

Row | Variant | area with substrate ENCYFQS | area with substrate ENDYFQS | area with substrate ENEYFQS | area with substrate ENFYFQS | area with substrate ENGYFQS | area with substrate ENHYFQS | area with substrate ENKYFQS | area with substrate ENNYFQS | area with substrate ENPYFQS | area with substrate ENQYFQS | area with substrate ENRYFQS | area with substrate ENSYFQS | area with substrate ENTYFQS | area with substrate ENVYFQS | area with substrate ENWYFQS | area with substrate ENAYFQS | area with substrate ENMYFQS | area with substrate ENYYFQS | area with substrate ENIYFQS
1 | V157F | 0.0637 | 0.0535 | 0.0608 | 0.0544 | 0.0519 | 0.0574 | 0.0611 | 0.0746 | 0.0476 | 0.0563 | 0.0613 | 0.103 | 0.0507 | 0.0638 | 0.0651 | – | – | – | –
2 | P222H | 0.0588 | 0.0689 | 0.0549 | – | – | 0.103 | – | 0.054 | 0.0893 | – | 0.0485 | 0.0525 | 0.0409 | 0.062 | 0.0466 | 0.0442 | – | – | –
3 | G8S | 0.0706 | 0.0688 | – | – | – | 0.0467 | – | 0.0652 | – | 0.0634 | 0.0808 | 0.0754 | – | 0.0756 | 0.0576 | – | 0.0642 | – | –
4 | M88H | 0.0368 | 0.051 | – | – | – | – | – | – | – | 0.0389 | – | 0.0835 | – | 0.0496 | – | – | – | – | –
5 | M88C | 0.0594 | – | – | 0.0632 | – | 0.0688 | 0.0637 | 0.0592 | – | 0.0712 | – | 0.0648 | 0.0603 | 0.0758 | 0.0031 | – | 0.0669 | 0.0673 | –
6 | P96N | 0.0564 | – | 0.0567 | 0.0455 | 0.0698 | 0.0523 | – | 0.0536 | – | 0.0547 | 0.0584 | 0.0551 | 0.0674 | 0.0778 | 0.0685 | – | 0.0679 | – | –
7 | P96V | 0.0622 | 0.06 | 0.0593 | 0.0693 | 0.0543 | 0.0666 | 0.0609 | 0.0573 | 0.0646 | 0.0543 | 0.0558 | 0.0674 | 0.0635 | 0.0596 | – | – | – | 0.057 | 0.0851
8 | D128R | 0.0769 | 0.0579 | 0.053 | 0.0661 | 0.0584 | 0.061 | – | – | – | 0.0602 | 0.0621 | 0.0754 | – | – | – | – | 0.095 | 0.0579 | –
9 | D128E | 0.072 | 0.0608 | – | – | – | 0.0593 | 0.0719 | 0.0405 | 0.0492 | 0.0626 | – | – | 0.0746 | – | – | – | – | – | –
10 | G136W | 0.0709 | 0.0614 | 0.056 | 0.0356 | – | 0.0591 | 0.0453 | 0.0644 | 0.0594 | 0.0527 | 0.051 | 0.0657 | 0.058 | 0.0703 | 0.0473 | – | – | 0.0565 | –
11 | S32I | 0.0713 | 0.0554 | 0.0521 | – | 0.0686 | 0.0549 | – | 0.0679 | 0.0673 | – | 0.0626 | 0.051 | – | 0.0681 | 0.0489 | – | 0.0697 | 0.0619 | –
12 | D149M | 0.0502 | – | 0.0748 | 0.058 | 0.0487 | 0.0589 | 0.053 | 0.0855 | – | 0.0625 | 0.0563 | 0.0671 | 0.0614 | 0.0672 | – | – | 0.0488 | 0.0909 | 0.115
13 | H168Q | 0.0596 | 0.0518 | 0.0404 | 0.0419 | 0.0629 | – | 0.122 | 0.0653 | – | 0.0636 | – | 0.0611 | 0.0655 | 0.06 | 0.0535 | – | – | 0.0731 | –
14 | L112Y | 0.0687 | 0.0556 | 0.0644 | 0.052 | – | 0.0605 | 0.0659 | 0.043 | – | 0.0609 | – | 0.0632 | 0.0554 | 0.0594 | – | – | 0.0634 | – | 0.072
